# Out of some 410,000 compounds screened, about 310 (0.076%) were called active. The shares of active, inactive and inconclusive entries below differ from those in the screen. Calls follow the shape of the dose curve; as a rule, active = well fitted curve in the direction sought with a large enough effect; inconclusive = small, poorly fitted or top-dose-only effect; inactive = flat fitted curve, though single readings scatter. Potencies of inconclusive entries are doubtful fits and often do not repeat.
# Biological target: DNA dC->dU-editing enzyme APOBEC-3G (Homo sapiens) (UniProt Q9HC16)
# Sequence of UniProt Q9HC16 (Q9HC16 whole entry, looked up): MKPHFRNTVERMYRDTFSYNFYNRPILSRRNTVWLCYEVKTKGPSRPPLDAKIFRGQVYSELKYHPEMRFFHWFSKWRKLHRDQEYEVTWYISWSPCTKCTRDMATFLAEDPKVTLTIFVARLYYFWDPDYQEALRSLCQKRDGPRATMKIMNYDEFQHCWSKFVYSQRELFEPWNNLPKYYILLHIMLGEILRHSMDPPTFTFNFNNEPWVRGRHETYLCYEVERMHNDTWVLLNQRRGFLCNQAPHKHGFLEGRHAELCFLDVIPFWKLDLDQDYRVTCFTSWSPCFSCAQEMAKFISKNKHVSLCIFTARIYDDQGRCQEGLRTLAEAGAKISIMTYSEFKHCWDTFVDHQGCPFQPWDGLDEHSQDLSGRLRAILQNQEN
# Experiment: qHTS for Inhibitors of Vif-A3G Interactions: qHTS; also: nearly all actives have a fitted effect of over 60% in size
# Conditions: HeLa A3G-eYFP + Vif (tagged APOBEC3G with the HIV-1 protein that degrades it), YFP fluorescence, overnight; series mostly up to 46.1 µM
# How it was run: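 Read-out is eYFP fluorescence (Ex 488/Em 500-530) from Vif-expressing HeLa A3G-eYFP cells; more signal means A3G escaped Vif-mediated degradation. Cells plated overnight, compound pinned in, incubated overnight at 37 deg C.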
# Potency is read from the fitted curve at half-maximal effect; tags tell the direction and shape of the fitted curve.
row,SMILES,Potency
1,COc1cccc(NC(=O)CSC2=C(C#N)C(c3ccco3)C3=C(CCCC3=O)N2)c1 (centres undefined),"inconclusive: 35.5 µM [inhibitor, single point]"
2,Cc1c(CC(=O)N2CCC(O)CC2)c(=O)oc2cc3c(cc12)CCC1(CCCCC1)O3,inactive
3,Cc1cccc(CNc2ccc(C(CC(N)=O)NC(=O)Cc3cccc4ccccc34)cc2[N+](=O)[O-])c1 (centres undefined),"inconclusive: 35.5 µM [inhibitor, single point]"
4,CCOc1ccc(CN2C(=O)c3ccccc3Sc3ccc(C(=O)NC)cc32)cc1,"inconclusive: 5.01 µM [inhibitor, full curve, poor fit]"
5,COc1ccc(C2C(C#N)=C(N)Oc3cc(O)ccc32)cc1OC (centres undefined),"inconclusive: 20 µM [inhibitor, single point]"
6,Cc1cc(C(=O)CCl)c(C)n1CC1COc2ccccc2O1 (centres undefined),"inconclusive: 25.1 µM [inhibitor, single point]"
7,CCn1c(COc2ccc(C)cc2)nc2ccccc21,inactive
8,Cc1c(C(=O)Nc2cccc(Cl)c2)c2ccccn2c1CCc1ccncc1,inactive
9,COc1ccccc1CCNC(=O)C(=O)NCC(c1cccs1)S(=O)(=O)c1ccc(C)cc1 (centres undefined),inactive
10,C#CCN(C[C@@H]1[C@@H](OC(=O)NC2CC2)[C@@H](OC(=O)NC2CC2)Cn2c(=O)ccc(=O)n21)S(=O)(=O)c1ccc(C)cc1,"inconclusive: 35.5 µM [inhibitor, single point]"
11,Cc1ccc2c(CNCc3ccccc3)cc(=O)oc2c1,"inconclusive: 7.08 µM [inhibitor, partial curve]"
12,O=C1Nc2ccccc2/C1=C/c1ccccc1F,inactive
13,C=C1C(=O)[C@]23C[C@H]1CCC2[C@@]1(C)C(C[C@@H]3O)[C@](C)(C(=O)O)CC[C@@H]1O (some centres undefined),"inconclusive: 22.4 µM [inhibitor, partial curve, poor fit]"
14,COC(=O)[C@@]1(Cc2ccccc2)[C@@H]2C(=CC(=O)[C@H]2CC(=O)C(=O)N(C)C)CN1C(=O)c1ccccc1,"inconclusive: 15.8 µM [inhibitor, partial curve, poor fit]"
15,Cc1ccc(-c2noc(-c3ccc(NCc4ccco4)c([N+](=O)[O-])c3)n2)cc1,inactive
16,O=C(/C=C/c1ccc2ccccc2n1)c1cc(Cl)ccc1O,"inconclusive: 20 µM [inhibitor, partial curve]"
17,CCOC(=O)c1ccc(C(=O)OCC)nc1,inactive
18,Oc1ccc(Br)cc1C=Nc1ccc2c3c(cccc13)CC2,"inconclusive: 35.5 µM [inhibitor, single point]"
19,O=C(N/N=C/c1ccc(N2CCOCC2)o1)c1cccc(C(F)(F)F)c1,inactive
20,O=C(Nc1ccccc1C(=O)NC1CC1)c1ccc([N+](=O)[O-])o1,"inconclusive: 10 µM [inhibitor, partial curve, poor fit]"
21,Nc1ccc2nc3c(=O)n(CCc4ccccc4)c(=O)[nH]c3nc2c1,"inconclusive: 5.62 µM [inhibitor, single point]"
22,Cc1ccccc1NC(=O)c1c(C)oc2ccc(O)c(CN3CCCC3)c12,inactive

row,SMILES,Potency
1,COc1ccc(C(=O)NC(=C(Cl)Cl)S(=O)(=O)c2ccc(C)cc2)cc1,"inconclusive: 25.1 µM [inhibitor, single point]"
2,C=CCOc1c(Cl)cc(CNc2ccc(N(C)C)cc2)cc1OC,"inconclusive: 6.31 µM [inhibitor, partial curve]"
3,O=[S@]1Oc2ccccc2-c2ccccc21,inactive
4,O=C1NC(=Nc2ccccc2)S/C1=C\c1cccn1-c1ccccc1,"inconclusive: 3.16 µM [inhibitor, full curve, poor fit]"
5,Cc1cc(/C=C2/C(=O)N(C)C(=S)N2C)ccc1N1CCCC1,"inconclusive: 35.5 µM [inhibitor, single point]"
6,CN1CCN(C(=O)CSc2nc(-c3cccs3)cc(-c3cccs3)c2C#N)CC1,"inconclusive: 20 µM [inhibitor, single point]"
7,CN(C)CCCN(C(=O)CCOc1ccccc1)c1nc2c(F)cccc2s1,"inconclusive: 31.6 µM [inhibitor, single point]"
8,COc1cccc(/C=N\n2c(C)nnc2C)c1OC,inactive
9,O=C(c1[nH]ncc1-c1cccc(Br)c1)C1CO1 (centres undefined),"inconclusive: 35.5 µM [inhibitor, single point]"
10,COc1ccccc1N1C(=O)C(Cl)=C(Nc2ccccc2O)C1=O,"inconclusive: 17.8 µM [inhibitor, single point]"
11,CCc1ccc(NC(=O)C(C)OC(=O)c2cc(=O)[nH]c3ccc(S(=O)(=O)Nc4ccc(F)cc4)cc23)cc1 (centres undefined),"inconclusive: 25.1 µM [inhibitor, single point]"
12,CCOC(=O)c1nnc(-c2ccccc2)nc1Sc1c(Cl)cccc1Cl,"inconclusive: 25.1 µM [inhibitor, single point]"
13,FC(F)(F)c1cc(Cl)c2nc(-c3ccccc3)cn2c1,inactive
14,O=C(COC(=O)c1cc(-c2ccccc2)nc2c(Cl)cccc12)c1ccc(F)cc1,inactive
15,COc1ccc(-c2cc(C(=O)Nc3ccc(C(N)=O)cc3)c3ccccc3n2)cc1OC,inactive
16,CCOc1ccc(S(=O)(=O)N(C(=O)c2ccncc2)c2ccc3oc(C)c(C(=O)OC)c3c2)cc1,inactive
17,ClCC1NCC(c2ccccc2Cl)c2c1[nH]c1ccccc21 (centres undefined),"inconclusive: 22.4 µM [inhibitor, single point]"
18,O=C(c1ccc(S(=O)(=O)Cc2cc(F)ccc2F)c([N+](=O)[O-])c1)N1CCCCC1,"inconclusive: 25.1 µM [inhibitor, single point]"
19,COc1ccccc1CNC(=O)c1ccc2nc3[nH]c4ccccc4c3nc2c1,"inconclusive: 20 µM [inhibitor, partial curve, poor fit]"
20,O=c1oc2cc(O)ccc2cc1-c1nc2ccccc2o1,"inconclusive: 22.4 µM [inhibitor, single point]"
21,O=C(CCc1ccccc1)c1c(O)cc(O)cc1O,inactive
22,COc1cccc(Nc2nc(Nc3ccc(Cl)c(C(=O)O)c3)nc(C)c2[N+](=O)[O-])c1,"inconclusive: 12.6 µM [inhibitor, partial curve, poor fit]"

# From PubChem BioAssay AID602310 (National Center for Advancing Translational Sciences (NCATS), 2012)
